# Measurements taken from PubChem BioAssay (NCATS).
# The inconclusive results got no clear call from the source; some entries with a clear call stand among them for comparison. No potency is given beside an inconclusive call; the fits are too rough. Active and inactive are the calls of the source. Calls follow the shape of the dose curve; as a rule, active = well fitted curve in the direction sought with a large enough effect; inconclusive = small, poorly fitted or top-dose-only effect, or another doubt; inactive = no such curve, though single readings can be large; an effect the other way counts as inactive or inconclusive.
# How the values were obtained:
# [1] = target: ATPase family AAA domain-containing protein 5 (Homo sapiens) (UniProt Q96QE3); assay: qHTS screen for small molecules that inhibit ELG1-dependent DNA repair in human embryonic kidney (HEK293T) cells expressing luciferase-tagged ELG1: Hit Confirmation using MMS Stimulated ELG1 (AID 624249); also: nearly all actives have a fitted effect of over 60% in size
# Sequence of UniProt Q96QE3 (Q96QE3 whole entry, looked up, the tested form may be a part): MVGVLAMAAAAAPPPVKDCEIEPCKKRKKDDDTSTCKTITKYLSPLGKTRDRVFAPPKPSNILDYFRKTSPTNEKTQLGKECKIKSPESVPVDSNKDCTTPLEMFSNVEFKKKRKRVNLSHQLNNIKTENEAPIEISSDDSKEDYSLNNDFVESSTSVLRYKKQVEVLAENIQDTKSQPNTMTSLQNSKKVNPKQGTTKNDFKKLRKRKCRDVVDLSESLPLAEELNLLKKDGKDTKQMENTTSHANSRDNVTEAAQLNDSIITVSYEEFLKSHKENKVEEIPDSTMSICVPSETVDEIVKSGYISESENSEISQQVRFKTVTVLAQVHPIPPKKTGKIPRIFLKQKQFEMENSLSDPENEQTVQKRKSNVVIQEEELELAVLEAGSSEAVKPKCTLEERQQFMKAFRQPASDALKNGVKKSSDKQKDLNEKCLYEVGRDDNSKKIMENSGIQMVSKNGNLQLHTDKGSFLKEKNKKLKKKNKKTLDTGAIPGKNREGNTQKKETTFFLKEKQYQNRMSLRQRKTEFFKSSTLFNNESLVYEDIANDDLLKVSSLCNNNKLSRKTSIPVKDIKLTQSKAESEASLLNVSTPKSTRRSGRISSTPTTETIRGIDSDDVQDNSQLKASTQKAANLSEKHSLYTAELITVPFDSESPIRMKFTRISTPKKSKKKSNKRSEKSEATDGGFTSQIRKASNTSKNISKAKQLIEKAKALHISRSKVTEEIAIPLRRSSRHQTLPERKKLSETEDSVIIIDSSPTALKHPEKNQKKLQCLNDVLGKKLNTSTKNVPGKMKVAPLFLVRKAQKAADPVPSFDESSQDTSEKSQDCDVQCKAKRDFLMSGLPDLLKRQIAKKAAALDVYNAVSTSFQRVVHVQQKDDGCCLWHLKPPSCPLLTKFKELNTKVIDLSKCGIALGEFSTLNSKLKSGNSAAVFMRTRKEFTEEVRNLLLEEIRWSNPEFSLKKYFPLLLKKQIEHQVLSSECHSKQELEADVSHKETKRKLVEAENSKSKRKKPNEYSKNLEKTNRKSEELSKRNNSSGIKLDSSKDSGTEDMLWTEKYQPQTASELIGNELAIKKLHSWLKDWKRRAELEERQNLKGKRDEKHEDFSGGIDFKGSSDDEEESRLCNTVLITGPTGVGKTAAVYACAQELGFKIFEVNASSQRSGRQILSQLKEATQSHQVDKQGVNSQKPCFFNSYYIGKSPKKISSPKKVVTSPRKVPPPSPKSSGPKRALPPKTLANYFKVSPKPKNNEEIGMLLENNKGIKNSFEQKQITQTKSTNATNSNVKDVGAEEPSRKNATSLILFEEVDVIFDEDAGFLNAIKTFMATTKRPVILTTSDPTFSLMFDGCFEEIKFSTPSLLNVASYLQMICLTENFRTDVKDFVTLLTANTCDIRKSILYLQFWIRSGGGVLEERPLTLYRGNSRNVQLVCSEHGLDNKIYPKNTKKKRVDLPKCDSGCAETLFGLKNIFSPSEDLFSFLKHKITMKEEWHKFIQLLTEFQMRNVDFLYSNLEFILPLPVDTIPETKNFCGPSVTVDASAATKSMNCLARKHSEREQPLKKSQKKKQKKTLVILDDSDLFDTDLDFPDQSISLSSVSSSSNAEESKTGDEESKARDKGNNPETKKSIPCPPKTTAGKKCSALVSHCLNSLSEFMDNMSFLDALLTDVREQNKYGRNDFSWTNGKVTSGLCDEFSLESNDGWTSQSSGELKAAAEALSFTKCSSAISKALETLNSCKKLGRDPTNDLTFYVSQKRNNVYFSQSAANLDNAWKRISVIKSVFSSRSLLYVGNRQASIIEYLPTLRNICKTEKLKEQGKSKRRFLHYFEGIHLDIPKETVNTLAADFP
# Procedure, shortened: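 Cells carrying luciferase-tagged ELG1 receive compound and DNA-damaging MMS (final concentration 10 µM) roughly five hours after seeding. Sixteen hours on, Amplight detects luciferase, and activity loss marks blocked ELG1 function.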
# [2] = qHTS screen for small molecules that inhibit ELG1-dependent DNA repair: Hit Confirmation with 5FU Viability (AID 624250);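 also: viability measured 16 h after compound addition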
# Procedure, shortened: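 HEK293T ELG1-luc cells seeded, dosed ~5 h later (compound; 5-FUrd 10 µM final), incubated 16 h. Read: CellTiter-Glo viability.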
# Potency is read from the fitted curve at half-maximal effect; tags tell the direction and shape of the fitted curve.
SMILES,Potency [1],Potency [2]
COCCCNc1nc(N)c([N+](=O)[O-])c(Nc2cc(OC)ccc2OC)n1,"inconclusive [inhibitor, partial curve, poor fit]","inconclusive [rising, full curve]"
COc1cc(/C=N/NC(=O)Nc2cccc3nsnc23)cc(OC)c1OC,"inconclusive [inhibitor, partial curve]","inconclusive [rising, full curve, poor fit]"
COc1ccccc1N1CCN(C(=O)CCCN2C(=O)c3cccc4cccc(c34)C2=O)CC1,"inconclusive [inhibitor, single point]","inconclusive [rising, partial curve]"
COCCCNc1nc2cc(OC)c(OC)cc2c2nc(-c3ccccc3)nn12,"inconclusive [inhibitor, partial curve]","inconclusive [rising, full curve]"
CN(C)c1ccnc2sc3c(=O)n(Cc4ccccc4)cnc3c12,"inconclusive [inhibitor, partial curve]","inconclusive [rising, full curve, poor fit]"
Cc1nn(-c2ccccc2)c(N2CCCC2)c1/C=N/NC(=O)c1cc(-c2ccccc2)nc2ccccc12,"inconclusive [inhibitor, partial curve]",inactive
c1ccc2c(c1)CCN(c1nc(CN3CCOCC3)nc3sc4c(c13)CCCC4)C2,"inconclusive [inhibitor, partial curve]","inconclusive [rising, full curve, poor fit]"
CCOC(=O)c1c(C)nc2sc3c(=O)n(-c4ccc(OC)cc4)cnc3c2c1-c1ccc(OC)cc1,inactive,inactive
Cc1csc(SCC(=O)Nc2cccc3nsnc23)n1,"inconclusive [inhibitor, partial curve]",inactive
COc1cc(C(=O)Nc2ccccc2NC(=O)c2cc(OC)c(OC)c(OC)c2)cc(OC)c1OC,inactive,"inconclusive [rising, full curve]"
COc1ccc(-c2cc(=O)oc3c(C)c(OC(=O)c4cccs4)ccc23)cc1,"inconclusive [inhibitor, full curve]",inactive
CC1=C(C(=O)OCc2ccc3c(c2)OCO3)C(c2ccccc2OCc2ccccc2)NC(=O)N1 (stereo not drawn),"inconclusive [inhibitor, partial curve]",inactive
C[C@H](CO)N1C[C@H](C)[C@@H](CN(C)C(=O)Nc2ccc(C(F)(F)F)cc2)Oc2c(NC(=O)CCC(F)(F)F)cccc2C1=O,inactive,"inconclusive [rising, full curve]"
COc1ccc(CN2CCN(CC(=O)Nc3ccccc3C(=O)NC3CC3)CC2)cc1F,"inconclusive [inhibitor, partial curve, poor fit]","inconclusive [rising, full curve]"
COc1ccc(OC)c(Nc2nc(NCc3ccco3)nc(N)c2[N+](=O)[O-])c1,inactive,"inconclusive [rising, full curve]"
CCCn1c(N2CCN(CC(=O)c3c(C)n(C)c4ccccc34)CC2)nc2c1c(=O)[nH]c(=O)n2C,"inconclusive [inhibitor, partial curve]","inconclusive [rising, full curve, poor fit]"
Cc1ccc(N(Cc2ccc(C(=O)Nc3ccccc3C(=O)NCc3ccco3)cc2)S(C)(=O)=O)cc1C,"inconclusive [inhibitor, single point]","inconclusive [rising, full curve, poor fit]"
Cc1ccc2cc(CN(CC3CCCO3)C(=S)Nc3ccccc3)c(=O)[nH]c2c1C (stereo not drawn),"inconclusive [inhibitor, partial curve]","inconclusive [rising, full curve, poor fit]"
CC(C)(C)C(=O)Nc1cccc(-c2nnc(-c3cccc(NC(=O)C(C)(C)C)c3)o2)c1,"inconclusive [inhibitor, partial curve]",inactive
CCOc1cc(C(=O)Nc2cccc(OCC(=O)N3CCOCC3)c2)cc(OCC)c1OCC,"inconclusive [inhibitor, partial curve]",inactive
Cc1cc(C(=O)NNc2ccc(F)cc2F)no1,inactive,inactive
COCc1ccc(-c2c(-c3cc(OC)cc(OC)c3)oc(=O)c3cc(OC)c(OC)cc23)cc1,inactive,"inconclusive [rising, full curve, poor fit]"
CCOC(=O)c1cccc(NC(=O)C2CCN(c3ncnc4c3nc3n4CCCCC3)CC2)c1,"inconclusive [inhibitor, partial curve]","inconclusive [rising, full curve]"
COc1ccc(CCN2C(=O)c3cccc4c(C(=O)N5CCCCC5)ccc(c34)C2=O)cc1OC,active: 7.91 µM,"inconclusive [cytotoxic, single point]"
COCCn1c(=N)c(C(=O)NCCc2ccc(OC)cc2)cc2c(=O)n3cccc(C)c3nc21,"inconclusive [inhibitor, partial curve]","inconclusive [rising, full curve]"
CCOC(=O)C1C(C(=O)OC)=C(c2ccc(OC)cc2)c2ccc(OC)cc2N1S(=O)(=O)C(F)(F)F (stereo not drawn),"inconclusive [inhibitor, partial curve]","inconclusive [rising, full curve]"
CC(=O)N1CCN(CC(=O)Nc2ccccc2C(=O)Nc2ccccc2)CC1,inactive,"inconclusive [rising, full curve, poor fit]"
CCn1c(SCC(=O)N2CC(C)OC(C)C2)nc2c([nH]c3ccccc32)c1=O (stereo not drawn),inactive,"inconclusive [rising, full curve]"
CCc1ccc(NC(=O)CNC(=O)c2nn(-c3ccc(OC)cc3)c(=O)c3ccccc23)cc1,inactive,"inconclusive [rising, full curve, poor fit]"
